# Results published in PubChem BioAssay (NCI).
# Where a structure was tested more than once in an assay, its records may differ in their call.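 Step 1: grow cells in 96-well plates. Step 2: add test compound at a single concentration. Step 3: incubate 48 h. Step 4: record percent growth.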 A number of entries come with more than one value. The other results are left out here. How the source made its calls: active means growth percent below 10; inactive means the rest. The source may hold further records. This drug was run again and again over the years, at the concentration stated with the values; each value is one run. Marks such as (2×) give the number of equal values in this list.
# System: COLO 205 colon
# Assay: NCI-60 one-dose screen, 48 h (100 = growth as untreated, 0 = no growth, -100 = all killed)
compound,measurement,setting,value
COc1cccc2c1C(=O)c1c(O)c3c(c(O)c1C2=O)C[C@@](O)(C(=O)CO)C[C@@H]3OC1CC(N)C(O)C(C)O1 (stereo not given in full),growth,"0.25 µM, runs of 2015","inactive: 41.1, 39.3 (3×), 48.6, 43.8, 40.5, 29.6, 28.1, 45.2 (2×), 52.6, 39.7, 43.7 (2×), 46.2, 35.7 (2×), 31.8, 25.9, 39.1, 36.6, 42, 33.4, 28, 39.5, 34.8, 35.5 (2×), 41, 32.5, 45.4, 44.5, 43.5, 35.4, 36.1, 31.5, 35.8, 40.6, 35.3, 33.9, 44.4 (2×), 41.8, 37.3, 38.6 (2×), 36.3, 39.2, 38.7, 33.7 (2×), 48.4, 55.2, 58.5, 51.2, 50.2, 47.4, 43.1, 51.3, 48.9, 51.6, 45.1, 48.3, 47.2, 56.3, 54.4, 38.1, 45.3, 45.8, 41.3, 42.1, 42.5, 48.7, 48, 41.6, 32.4, 44.7, 46.4, 40.2%"
same,growth,"0.25 µM, runs of 2016","inactive: 46.4 (2×), 44.2, 46.6 (2×), 49.6, 44.1, 51.8, 39.3 (2×), 38.7 (2×), 38.8, 41.1, 42.1, 31.7, 35.6 (2×), 38.1, 42.6, 40.8, 23.8, 29.5 (2×), 36.5, 39.9, 33.4, 32.9, 25.6, 33, 37.3 (2×), 42.4, 33.1, 39.5, 35.8, 39.8 (2×), 34.6, 38 (2×), 38.2, 45.3, 43.9, 46, 44, 46.9, 45.5, 57.1 (2×), 53.3, 46.1, 43.8, 43.3, 52.7, 51.3, 54, 59.8, 54.2, 56 (2×), 58.2, 55, 55.1, 54.1, 55.2, 59.6, 54.5, 61.4, 52.6 (2×), 46.3, 50.1, 47.3, 41.2, 42.8 (2×), 40.7, 48.7%"
same,growth,"0.25 µM, runs of 2017","inactive: 46.5 (2×), 31.9, 37.7, 47.4, 46.4, 48.6, 50.5 (2×), 33.5 (2×), 34.4, 44.5, 39.5, 38.9, 38.3 (2×), 42.1, 44 (3×), 40.8, 38.2, 38.7 (2×), 32.9, 41.6, 25, 35.2, 40.7, 39, 40.6 (2×), 33.9, 39.7 (2×), 44.7, 43.1, 51.7, 39.1 (2×), 39.2, 35.7, 34.8, 34.5, 44.3 (2×), 42, 34.9, 39.4 (2×), 50.7, 42.2, 44.6, 38.5, 29.1, 48.2, 32.5, 38, 36.1, 33.4, 51.5, 44.8, 43.4, 38.6, 33.3, 34.2 (2×), 44.9 (2×), 45.5, 43.8, 54.1, 49.8, 41.5, 48%"
same,growth,"0.25 µM, runs of 2018","inactive: 47.4, 44.7, 53.1, 51.1 (2×), 46.3 (2×), 45.1 (2×), 39.1 (2×), 41.6, 42.3, 52.9, 50.6, 44 (2×), 52.6, 37, 60.7, 51.5 (2×), 48.4, 48.6 (2×), 49.8 (3×), 53.7 (2×), 53.6, 58.9, 50.1 (2×), 44.8 (2×), 44.3, 43, 39.9, 49.1, 45.7, 46.9, 45.3, 42.2, 40.5, 40.2, 44.1, 46.6, 39.7, 31.7, 37.2%"
same,growth,"0.25 µM, runs of 2019","inactive: 46.4 (3×), 39.2, 38.9, 36.7, 40, 45.7, 45.4 (2×), 45.2 (2×), 39.7, 40.5, 31.5, 39.8, 42.5, 32, 45.5, 35, 46.3 (2×), 44, 37.3, 40.2, 43.5, 47.2, 46.7, 51.9, 53.3, 43.9, 51.3, 51.4, 62.8, 49.8, 45.8, 50.4 (2×), 52.7, 50, 57.5, 46, 35.7, 39%"
same,growth,"0.25 µM, runs of 2020","inactive: 32.1, 35, 45.8, 34.6, 38.5, 52.7, 39.5, 59.1, 51.1, 34, 45.9, 53.7, 35.7, 41.2, 45.7, 43.4, 54.5, 51.2, 49.6, 56.2, 48.7, 41.9, 47.4, 47.2%"
same,growth,"0.25 µM, runs of 2021","inactive: 60, 62.6, 47.3, 51, 53.2, 47.1, 57, 43.8, 47.6, 50.4, 59.6, 54.5, 44.4, 46.1 (2×), 44.1, 56.2, 49.7, 33.8, 26.3, 42.2, 55.7 (2×), 57.8, 45.2, 44.8, 44.2, 50.6, 58.3, 61, 45.4, 43.1, 59.1, 55.4 (2×), 56.8, 57.9, 54.7, 60.3, 60.4, 40.7, 41.3, 48.4, 40.1, 29.8, 41.8, 53.3, 50, 46.3, 70.1, 51.7, 42.4%"
same,growth,"0.25 µM, runs of 2022","active: -1.27%, 4.02% and inactive: 54.1, 63.5, 10.6, 30.7, 31.6, 37.4, 50, 56.7, 59.6, 58.5, 59.9, 45.9, 45.3, 39, 79.7, 80.2, 58.4, 73.8, 75.1, 81, 50.2, 48.4, 54.4, 48.8, 33.5%"
same,growth,"25 µM, runs of 1991","active: -55.3, -28.7, -22.4, -39.4, -72.1, -68.8, -88.4, -69.3 (2×), -40.9, -46.2, -100 (2×), -87.1, -45.3, -56.6, -91.1, -97.9%"
same,growth,"25 µM, runs of 1992","active: -52.8, -77.7, -94.1, -85.7 (2×), -92, -100 (10×), -74.3, -68.2, -68.7, -84.4, -79.5, -88.7, -97.8 (2×), -90.4, -98.4, -92.7 (2×), -95.5, -94.3, -92.3 (2×), -73.6, -62.2, -75.5, -80, -72.6, -65.7, -89.5, -46.8, -73.9 (2×), -90.7, -65.9 (2×), -82.3, -88.9, -93, -87.7 (2×), -97.9, -81.4, -46.3, -59.3, -66.3, -81.3, -90.9, -85.9, -99.7, -85, -98.7, -82.9, -65.1, -54.6, -71.4, -93.2 (2×), -85.2, -98, -96.7 (2×), -95, -95.4, -62.3, -82, -65.2, -67.5, -70.1, -80.1, -77.4, -86.7, -99.8, -98.8, -60.5, -97.6, -96.5, -87.2, -64.2, -49.9, -83.1, -77, -90.2, -63.8 (2×), -85.6, -80.2, -83.9, -95.2, -95.9, -90.1, -46.4, -60.2, -76, -62.9, -85.8, -90.8, -92.6, -65, -37.6, -79.2, -90.6 (2×), -96.2, -61.7, -5.38, -55.6, -71.2, -74.9, -89.8, -98.6, -22.6, -93.7, -81.1, -97.7%"
same,growth,"25 µM, runs of 1993","active: -56.4, -70.2, -9.2, -91.6, -88.6, -95.1, -22.6, -66.3, -77.5, -88.8, -78.8, -77.6, -42.5, 9.66, -77.1, -37.2, -66.7, -80.7, -79.6, -49.2, -84.7, -23.7, -46.6, 2.36, -96.6, -82.7, -64.9, -25.7, -91.3, -88.3, -34.2, -73.7, 7.16, -54.2, -59.6, -88.2, 1.44, 4.98, -69.3, -84, -44.1, -76.6, -87, 0.0837, -78.5, -89% and inactive: 24.2%"
same,growth,"25 µM, runs of 1994","active: -34.2, -38.1, -93.8, -83.9, -89.4, -57.1, -87.2, -83.4, -77.2, -16.3, -57.3, -91.3 (2×), -74, -25.3, -85.8, -24.6, -45, -66.3, -79.7, -75.2, -86.7, -83.3, -84.1, -26.8, -69.1, -90.1, -99.2, -39.1, -79, -98.2, -52.4, -54.4% and inactive: 85.7%"
same,growth,"25 µM, runs of 1995","active: -84.8, -99.5, -88.6, -75.5, -100, -97, -99.3, -70.2, -91.6, -92.1, -95.4, -84.2, -89.7, -94.2, -70.4, -98, -97.4, -76.9, -83.9, -92.8, -12.7, -69.7, -79.7, -62.5, -30.4, -48.8, -17, -50.6, -47.9, -36.7, -68.4, -77, -92, -68.6, -75.6, 6.16, -70.1, -58.7%"
same,growth,"25 µM, runs of 1996","active: -71.9, -32, -83, -55.3, -78.7, -98, -80.8, -48.1, -55.4, -95.9, -66, -79.8, -77.5, -89.1, -87.4, -40.4, -55.6, -87.1, -52 (2×), -68.9, -60.2, -57.5, -58.1, -34, -5.58, -70.4, 1.66, -67.2, -84.4, -52.5, -57.8, -22.8, -42.3, -29.2, -82.2, -63, -90.3, -64, -19.6, -23.6, -39.5, -69.3, -51.8, -27.3, -1.55, -61.7, -36.6, -16.2, -42.8, 2.31, -77.4, -4.38, -75.5, -49.8, -90.4% and inactive: 99.4%, 95.7%"
same,growth,"25 µM, runs of 1997","active: -84.9, -72.9, -66.2, -80.7, -73.7, -67.2, -59.2, -51.6, -90.7, -67.6, -93.3, -82.8 (3×), -81.3, -83.3, -73.2, -75.6, -88.4, -49.5, -69.8, -54.9, -71.5, -82, -59.8, -71.7, -80.5, -88.6, -48.5, 8.33, -44.3, -78.4, -73.4, -85.6, -95.3, -82.9, -66, -67.4, -33.4, -30.9, -84.8, -79.4, -87.4, -41.6% and inactive: 16%"
